Measurements: PubChem BioAssay AID1476 (National Center for Advancing Translational Sciences (NCATS), 2009)
Out of some 200,000 compounds screened, about 4,500 (2.2%) were called active. The shares of active, inactive and inconclusive entries below differ from those in the screen. The call rests on the fitted dose curve; in most records, active means well fitted inhibition curve with a large enough effect; inconclusive means small, poorly fitted or top-dose-only effect, or effect the other way; inactive means flat fitted curve, though single readings scatter. Where the call is inconclusive, the potency comes from a doubtful curve fit.

target: Cruzipain (Trypanosoma cruzi) (UniProt P25779); assay: qHTS Assay for Promiscuous and Specific Inhibitors of Cruzain (without detergent); conditions: purified cruzain, Z-FR-AMC fluorescence, no detergent; further: nearly all actives have a fitted effect of over 40% in size;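 on max response, negative = inhibition: plate controls were enzyme without inhibitor for no effect and buffer without enzyme for full effect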
In short: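 Purified cruzain at 1.5 nM, pre-incubated 15 min with compound at room temperature in 100 mM sodium acetate pH 5.5, 5 mM DTT, 0.00005% Triton X-100. Reaction started with 2 uM Z-FR-AMC; AMC fluorescence increase over 60 s gives rate.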
Potency means the concentration at half of the fitted maximal effect; tags describe the fitted curve by direction and shape.

UniProt P25779, sequence (P25779 whole entry, looked up): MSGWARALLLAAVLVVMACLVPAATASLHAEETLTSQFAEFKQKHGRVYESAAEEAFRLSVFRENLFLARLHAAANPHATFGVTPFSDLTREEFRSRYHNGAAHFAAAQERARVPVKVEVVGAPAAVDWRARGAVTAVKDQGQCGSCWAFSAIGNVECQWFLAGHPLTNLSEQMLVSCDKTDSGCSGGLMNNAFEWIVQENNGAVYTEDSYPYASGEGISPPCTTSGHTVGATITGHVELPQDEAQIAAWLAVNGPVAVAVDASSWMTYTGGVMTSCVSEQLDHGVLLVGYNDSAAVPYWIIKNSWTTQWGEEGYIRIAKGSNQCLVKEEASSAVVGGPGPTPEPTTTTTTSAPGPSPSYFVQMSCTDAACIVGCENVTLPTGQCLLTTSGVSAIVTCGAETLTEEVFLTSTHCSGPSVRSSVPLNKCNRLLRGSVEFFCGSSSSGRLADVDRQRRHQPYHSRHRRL

Q: Which max response, negative = inhibition does the source give for `CC(=O)Nn1cnc2c(c1=O)C1(CCCC1)Cc1ccccc1-2` here?
A: The max response, negative = inhibition was inactive: 0.327%.

Q: How did the Potency turn out when `COc1ccc(OC)c(NC(=O)Nc2nnc(N3CCC(C)CC3)s2)c1` was run?
A: The Potency was inconclusive: 39.8 µM [activator, single point].

Q: `Cc1ccc(S(=O)(=O)Nc2ccccc2CNc2ncc(Br)cc2Br)cc1` was tested. Which Potency did it give?
A: The Potency was inconclusive: 31.6 µM [inhibitor, single point].

Q: With `CCOc1ccc(CNC(=O)CN2N=C(c3ccccc3)CCC2=O)cc1OC` as the compound, how does the max response, negative = inhibition read?
A: The max response, negative = inhibition was inactive: 1.89%.

Q: `CCOCCCn1c(SCC(=O)Nc2ccc(CC)cc2)nc2ccccc2c1=O` was tested. Which Potency did it give?
A: The Potency was inconclusive: 39.8 µM [activator, single point].

Q: With `C/C(=N/NC(=O)c1cccs1)c1ccc(NC(=O)COc2ccc(Cl)cc2Cl)cc1` as the compound, how does the Potency read?
A: Its Potency is inconclusive: 31.6 µM [inhibitor, single point].

Q: With `CN(C(=O)COC(=O)c1cc(-c2ccccc2Cl)nc2ccccc12)C1CCS(=O)(=O)C1` (centres undefined) as the compound, how does the Potency read?
A: The Potency was inconclusive: 39.8 µM [activator, single point].

Q: For `Oc1ccc(N2CCN(C(c3cccs3)c3nnnn3CCc3ccccc3)CC2)cc1` (centres undefined), which Potency is on record?
A: Its Potency is inconclusive: 39.8 µM [inhibitor, single point].

Q: `CNc1nc(NCCOC23CC4CC(CC(C4)C2)C3)nc(OCC(F)(F)F)n1` was tested. Which Potency did it give?
A: The Potency was inconclusive: 31.6 µM [activator, single point].

Q: `Cc1ccc2cc(CN(CCCO)S(=O)(=O)c3cccc4nsnc34)c(=O)[nH]c2c1C` was tested. Which Potency did it give?
A: The Potency was inconclusive: 39.8 µM [activator, single point].

Q: How did the Potency turn out when `O=S(=O)(c1ccc(-c2csc(=Nc3ccc(F)cc3)n2CCCCCCO)cc1)N1CCCC1` was run?
A: The Potency was inconclusive: 25.1 µM [activator, partial curve].

Q: With `Cc1cccc(OCC(=O)Nc2ccc3c(c2)nc(CN2CCCCC2)n3C)c1` as the compound, how does the max response, negative = inhibition read?
A: The max response, negative = inhibition was inactive: -12.7%.

Q: `COc1ccc2cc(CCNS(=O)(=O)c3ccc(C)cc3)c(=O)[nH]c2c1` was tested. Which max response, negative = inhibition did it give?
A: Its max response, negative = inhibition is inactive: 0.504%.

Q: For `CCOC(=O)C1CCN(C(=O)c2c(C)nn(-c3ccc(F)cc3)c2-n2cccc2)CC1`, which Potency is on record?
A: Its Potency is inconclusive: 31.6 µM [activator, single point].

Q: How did the max response, negative = inhibition turn out when `NCC(=O)N[C@H](CO)C(=O)O` was run?
A: Its max response, negative = inhibition is inactive: 11.6%.

Q: Which Potency does the source give for `Cc1cc(NC(=O)CSc2nc3cc4c(cc3c(=O)n2CCc2ccccc2)OCO4)no1` here?
A: The Potency was inconclusive: 31.6 µM [inhibitor, single point].

Q: `COC(=O)c1c(NC(=O)COC(=O)CNC(=O)C2CCCCC2)sc(C)c1C` was tested. Which Potency did it give?
A: The Potency was active: 10 µM.

Q: Which max response, negative = inhibition does the source give for `O=C(COC(=O)Cc1c(F)cccc1Cl)NCCC1=CCCCC1` here?
A: Its max response, negative = inhibition is inactive: 0.947%.

Q: For `COc1ccc(C(=O)Oc2cc3c4c(c2)C(C)=CC(C)(C)N4C(=O)C3=O)cc1OC`, which Potency is on record?
A: Its Potency is inconclusive: 31.6 µM [activator, partial curve].

Q: How did the Potency turn out when `COc1ccc(Cl)cc1Nc1nc(-c2sc(NC(=O)CC(C)C)nc2C)cs1` was run?
A: Its Potency is active: 20 µM.

Q: With `COc1cc(C(=O)Oc2c(CN3CCOCC3)cc(Cl)c3cccnc23)cc(OC)c1OC` as the compound, how does the Potency read?
A: Its Potency is inconclusive: 39.8 µM [activator, single point].

Q: With `CCCc1cc(=O)oc2c(C)c3c(cc12)CN(CCc1ccc(Cl)cc1)CO3` as the compound, how does the max response, negative = inhibition read?
A: Its max response, negative = inhibition is inactive: -6.07%.

Q: For `CC1CCC(NC(=O)CN2C(=O)C3CCCN3c3ncc(Cl)cc32)CC1` (centres undefined), which Potency is on record?
A: Its Potency is inconclusive: 15.8 µM [inhibitor, single point].

Q: How did the max response, negative = inhibition turn out when `N[C@@H]1CCN(O)C1=O` was run?
A: The max response, negative = inhibition was inactive: -3.13%.

Q: How did the Potency turn out when `Cc1ccc2nc(NC(=O)CSc3ncnc4c3oc3ccccc34)sc2c1` was run?
A: The Potency was inconclusive: 31.6 µM [inhibitor, single point].

Q: For `COc1ccc(-c2[nH]n(-c3ccc([N+](=O)[O-])cc3)c(=O)c2C=NCc2ccncc2)cc1`, which Potency is on record?
A: Its Potency is inconclusive: 31.6 µM [activator, partial curve].

Q: How did the Potency turn out when `O=C(NCc1ccco1)c1cc2cc3ccc(Cl)cc3nc2o1` was run?
A: The Potency was inconclusive: 3.16 µM [inhibitor, full curve, poor fit].

Q: Which Potency does the source give for `COc1ccc(-c2nc(-c3cccc(C)c3)no2)cc1OC` here?
A: The Potency was inconclusive: 25.1 µM [activator, single point].

Q: `Cc1ccc(NC(=O)CSc2nc3c(sc4ccccc43)c(=O)n2CCCC(=O)NC2CCCC2)cc1C` was tested. Which max response, negative = inhibition did it give?
A: The max response, negative = inhibition was inactive: 6.62%.

Q: With `CC(C)COc1ccc(C(=O)Nc2nnc(S(=O)(=O)N(C)Cc3ccco3)s2)cc1` as the compound, how does the Potency read?
A: Its Potency is inconclusive: 25.1 µM [inhibitor, single point].

Q: For `COc1ccc(-c2oc(/N=C/N3CCOCC3)c(C#N)c2-c2ccc(OC)cc2)cc1`, which Potency is on record?
A: Its Potency is inconclusive: 15.8 µM [activator, partial curve].

Q: Which Potency does the source give for `O=C(c1csnn1)N1CCC2(CC1)CN(c1cccc(-c3ccccc3)c1)C2` here?
A: Its Potency is inconclusive: 39.8 µM [activator, single point].

Q: With `CCOC(=O)C1CCN(C(=O)c2cn(CCOC)c(=O)c3c2c2ccccc2n3C)CC1` as the compound, how does the Potency read?
A: The Potency was inconclusive: 31.6 µM [activator, single point].

Q: `CCOC(=O)c1c(NC(=O)CSc2nc3ccccc3c(=O)n2-c2ccc(F)cc2)sc(C(C)=O)c1C` was tested. Which Potency did it give?
A: Its Potency is active: 7.94 µM.

Q: For `CCOC(=O)N1CCC(NC(=O)c2cn(-c3ccc(OC)cc3)c(=O)c3ccccc23)CC1`, which max response, negative = inhibition is on record?
A: Its max response, negative = inhibition is inconclusive: 40.2% [activator].

Q: Which Potency does the source give for `COCCN=c1scc(-c2cc(OC)c(OC)c(OC)c2)n1/N=C/c1c(C)[nH]c2ccccc12` here?
A: The Potency was inconclusive: 20 µM [activator, partial curve].

Q: `COc1ccccc1NS(=O)(=O)c1cc(NC(=O)Cn2cnc3c2c(=O)n(C)c(=O)n3C)ccc1C` was tested. Which Potency did it give?
A: Its Potency is inconclusive: 31.6 µM [activator, single point].

Q: Which Potency does the source give for `CCOc1cc(CNC(=O)NC2COc3ccccc3C2)cc(OCC)c1OCC` (centres undefined) here?
A: The Potency was inconclusive: 31.6 µM [activator, single point].

Q: Which Potency does the source give for `Cc1noc(C)c1C(=O)N1CCC[C@@]2(CCN(c3ccccc3)C2)C1` here?
A: The Potency was inconclusive: 39.8 µM [activator, single point].

Q: `Nc1ccc(-c2nc3c(Cl)cc(N)cc3[nH]2)cc1` was tested. Which Potency did it give?
A: The Potency was inconclusive: 20 µM [inhibitor, single point].

Q: With `CCOc1ccccc1CNC(=O)c1cc2c(=O)n(Cc3ccco3)ccc2nc1C` as the compound, how does the Potency read?
A: The Potency was inconclusive: 39.8 µM [activator, single point].

Q: With `CCOC(=O)c1ccc(NC(=O)CC2C(=O)N(c3cccc(C)c3)C(=O)N2CCOC)cc1` (centres undefined) as the compound, how does the Potency read?
A: The Potency was inconclusive: 31.6 µM [activator, single point].

Q: How did the Potency turn out when `c1ccc(Cn2nnnc2C(c2ccccc2)N2CCN(c3nc4ccccc4s3)CC2)cc1` (centres undefined) was run?
A: Its Potency is inconclusive: 39.8 µM [inhibitor, single point].

Q: How did the Potency turn out when `CCOC(=O)c1sc(N(Cc2ccccc2)C(=O)CSc2ncn[nH]2)nc1C` was run?
A: The Potency was inconclusive: 39.8 µM [activator, single point].

Q: How did the Potency turn out when `CCOC(=O)C1CCCN(c2cc(C)nc3cc(-c4ccc(Cl)cc4)nn23)C1` (centres undefined) was run?
A: The Potency was inconclusive: 39.8 µM [activator, single point].

Q: For `C=CCn1c(SCc2nc3sc4c(c3c(=O)[nH]2)CCCC4)nc2ccccc2c1=O`, which Potency is on record?
A: The Potency was active: 12.6 µM.

Q: How did the Potency turn out when `Cc1cc(C(=O)CSc2nnc(-c3cccs3)o2)c(C)n1-c1ccccc1` was run?
A: Its Potency is active: 25.1 µM.

Q: `Cc1nc2ccc(S(=O)(=O)NC(CC(C)C)C(=O)NCc3ccc(Cl)cc3)cc2s1` (centres undefined) was tested. Which Potency did it give?
A: Its Potency is inconclusive: 39.8 µM [activator, single point].

Q: For `CC(C)C(C)(C#N)NC(=O)CSc1ncnc2sc(-c3ccccc3)cc12` (centres undefined), which Potency is on record?
A: Its Potency is inconclusive: 25.1 µM [activator, single point].

Q: Which Potency does the source give for `N#Cc1cc2c(nc1SCC(=O)Nc1nccs1)CCCCC2` here?
A: The Potency was inconclusive: 31.6 µM [inhibitor, single point].

Q: Which Potency does the source give for `C[N+](C)(C)CCC(=O)c1cccc2ccccc12` here?
A: The Potency was active: 10 µM.

Q: Which Potency does the source give for `CCOC(=O)c1c(C)oc2c1cc(O)c1ccccc12` here?
A: The Potency was inconclusive: 31.6 µM [inhibitor, single point].

Q: For `N#Cc1ccc(Cl)cc1NC(=O)COC(=O)[C@H](CCC(N)=O)NC(=O)c1ccc(F)cc1`, which Potency is on record?
A: Its Potency is active: 20 µM.

Q: `COc1ccccc1S(=O)(=O)Cc1ccc(C(=O)N2CCN(c3ccccc3)CC2)o1` was tested. Which Potency did it give?
A: The Potency was inconclusive: 39.8 µM [activator, single point].

Q: With `CN(c1ccc(F)cc1)S(=O)(=O)N1CCCC(C(=O)NCCc2ccccc2)C1` (centres undefined) as the compound, how does the max response, negative = inhibition read?
A: Its max response, negative = inhibition is inactive: 6.36%.

Q: For `COc1ccc(C2=NC(C)(C)N(CC(=O)Nc3cc(OC)cc(OC)c3)C2=O)cc1`, which Potency is on record?
A: Its Potency is inconclusive: 39.8 µM [activator, single point].

Q: For `O=C(CSc1nnc(COc2ccccc2)o1)c1ccccc1`, which Potency is on record?
A: Its Potency is inconclusive: 6.31 µM [inhibitor, single point].

Q: With `CCOc1ccc(NC(=O)Nc2cc3c(cc2N2CCCCC2)n(C)c(=O)n3C)cc1` as the compound, how does the max response, negative = inhibition read?
A: The max response, negative = inhibition was inactive: -5.32%.

Q: `CCOc1ccc(NCc2nnc(SCC(=O)Nc3nc(-c4ccccc4)cs3)n2-c2ccccc2)cc1` was tested. Which Potency did it give?
A: Its Potency is active: 25.1 µM.

Q: Which Potency does the source give for `Cc1ccc(-c2noc(CN(C(=O)CCCCCN3C(=O)c4ccccc4C3=O)C(C)C)n2)cc1` here?
A: Its Potency is inconclusive: 39.8 µM [activator, single point].

Q: With `COc1cc(-c2noc(-c3ccc(NC4CCCC4)c([N+](=O)[O-])c3)n2)cc(OC)c1OC` as the compound, how does the Potency read?
A: Its Potency is inconclusive: 39.8 µM [inhibitor, single point].

Q: `COC(=O)c1ccc(CSc2nnc(-c3c[nH]c4ccccc34)n2-c2ccccc2)cc1` was tested. Which Potency did it give?
A: The Potency was inconclusive: 31.6 µM [inhibitor, single point].

Q: Which max response, negative = inhibition does the source give for `C=CCc1cccc2cc(-c3nc4ccc(C(=O)O)cc4[nH]3)c(=O)oc12` here?
A: The max response, negative = inhibition was inactive: 7.23%.

Q: How did the Potency turn out when `O=c1cc(N2CCN(c3ccccc3F)CC2)[nH]c(=O)n1-c1ccc(Br)cc1` was run?
A: Its Potency is active: 25.1 µM.
